Several values for one entry are separate records, joined by “and”; a condition that tells them apart may be missing. Equal entries are not always repeated. Inconclusive means that the source gave no clear call. Such entries were picked first, then a sample of the others. A potency beside an inconclusive call is a rough fit, not a confirmed value. Where a structure was tested more than once in an assay, its records may differ in their call. Activity calls are given as the source filed them. Calls follow the shape of the dose curve; as a rule, active = well fitted cell-killing curve with a large enough effect in the repeat runs; inconclusive = weak or mixed curves, or effect the other way; inactive = no such curve, though single readings can be large or run the other way.
Test: qHTS assay for identifying genotoxic compounds that show differential cytotoxicity against isogenic chicken DT40 cell lines with known DNA damage response pathways - wild type cell line (AID 743012); also: nearly all actives have a fitted effect of over 60% in size
Details: DT40 wild type chicken cells viability, CellTiter-Glo, 40 h; activity change, negative = cytotoxicity: at 68.4 µM (top of the series)
From the text: U.S. Tox21 Program National Center for Advancing Translational Sciences [NCATS] NIH Chemical Genomics Center [NCGC] U.S. Environmental Protection Agency [EPA] National Institutes of Environmental Health Sciences [NIEHS] National Toxicology Program [NTP] U.S. Food and Drug Administration [FDA] Tox21 Assay Overview: DNA repair pathways play a critical role in cellular homeostasis by repairing DNA damage induced by endogenous processes and xenobiotics. Isogenic chicken DT40 cell lines deficient in different DNA repair pathways can be used to identify genotoxic compounds and aid in characterizing the nature of the DNA damage induced. Two DNA repair-deficient cell lines with disrupted genes, Rad54/Ku70 or Rev3, were used to screen the Tox21 10K compound library. Possible genotoxicity was based on the presence of a significant increase in cytotoxicity in one or more of the DNA repair-deficient cell lines compared to that observed in the parental DNA repair-proficient cell line. CellTiter Glo viability assay (Promega, Madison, WI) was used to measure cell viability in these cells after compound treatment. This assay includes the data from the wild type cell line.
Tox21 Assay Protocol Summary: 300 DT40 wild type cells in 5 uL/well were dispensed into white, solid-bottom 1536-well plates using a Multidrop Combi (ThermoFisher Scientific, Waltham, MA) dispenser. After the assay plates were incubated at 37 C/5% CO2 for approximately 0.5 hour, 23 nL of compounds dissolved in DMSO, positive controls or DMSO only was transferred into the assay plate by a pintool work station (Kalypsys, San Diego, CA). The assay plates were incubated at 37 C/5% CO2 for 40 hours. After 5 uL per well of CellTiter-Glo reagent was added into each well of the assay plates, the plates were incubated for 30 min at room temperature and the luminescence intensity of the plates was measured using a ViewLux (PerkinElmer, Shelton, CT) plate reader.
% is scaled to controls: 0 for no effect and ±100 for the full control effect; potency is read from the fitted curve at half-maximal effect; tags tell the direction and shape of the fitted curve.

SMILES	Potency	activity change, negative = cytotoxicity
O=P(O)(O)O	inconclusive: 2.66 µM [rising, full curve, poor fit]	
O=C(c1ccc(O)cc1O)c1ccc(O)cc1O		inconclusive: -30.4% [cytotoxic]
CC(C)(C)CC(C)(C)c1ccc(O)c(Cc2ccc(Cl)cc2Cl)c1	active: 26.6 µM	
CCOC(=O)O[C@H](C)OC(=O)c1ccc2c(c1)cc(C(=O)NC1CCN(C(C)C)CC1)n2Cc1cc(-c2ccc(Cl)s2)on1	active: 6.41 µM	
CC(C)(c1ccc(O)cc1)c1ccc(O)cc1	inconclusive: 76.1 µM [cytotoxic, single point] and active: 27.3 µM	
Nc1ccc(Nc2ccccc2)cc1	inconclusive: 67.8 µM [cytotoxic, single point] and inconclusive: 77 µM [cytotoxic, single point]	
CC(O)(c1ccc(Cl)cc1)c1ccc(Cl)cc1	inconclusive: 24.3 µM [cytotoxic, partial curve]	
CC(C)(C)c1ccc(C(=O)CCCN2CCC(OC(c3ccccc3)c3ccccc3)CC2)cc1	active: 4.22 µM	
COc1ccc(C(Cl)=C(c2ccc(OC)cc2)c2ccc(OC)cc2)cc1	inconclusive: 68.2 µM [cytotoxic, single point]	
CCCCCCCCCOC(=O)c1ccc(O)cc1	inconclusive: 26.9 µM [cytotoxic, single point]	
CC(=O)O[C@]1(C(C)=O)CC[C@H]2[C@@H]3C[C@H](C)C4=CC(=O)CC[C@]4(C)[C@H]3CC[C@@]21C	inconclusive: 0.217 µM [rising, full curve]	
NC(=O)n1c(O)c(C(=O)c2cccs2)c2cc(Cl)ccc21	inconclusive: 33.5 µM [cytotoxic, single point]	
CC1CCCNC1 (stereo not given)	inconclusive: 67.1 µM [cytotoxic, single point]	
CCCN(CCC)C(=O)C(CCC(=O)OCCCN1CCN(CCOC(=O)Cc2c(C)n(C(=O)c3ccc(Cl)cc3)c3ccc(OC)cc23)CC1)NC(=O)c1ccccc1 (stereo not given)	active: 23.7 µM	
CN(C)C(=O)C1(N2CCCCC2)CCN(CC[C@@]2(c3ccc(Cl)c(Cl)c3)CN(C(=O)c3ccccc3)CCO2)CC1	active: 7.19 µM	
O=C(NO)c1ccccc1	inconclusive: 9.23 µM [rising, full curve, poor fit]	
CC(O)CO (stereo not given)	inconclusive: 68.6 µM [cytotoxic, single point]	
CN(C)CCCN1c2ccccc2CCc2ccc(Cl)cc21	active: 7.5 µM and active: 6.11 µM	
CN(C)CCN(Cc1cccs1)c1ccccn1	inconclusive: 68.2 µM [cytotoxic, single point]	
CCCCc1oc2ccc(NS(C)(=O)=O)cc2c1C(=O)c1ccc(OCCCN(CCCC)CCCC)cc1	active: 9.44 µM	

SMILES	Potency	activity change, negative = cytotoxicity
CC(Cc1ccc(O)c(O)c1)C(C)Cc1ccc(O)c(O)c1 (stereo not given)	active: 13.7 µM	
Cc1oncc1C(=O)Nc1ccc(C(F)(F)F)cc1	inconclusive: 1.27 µM [cytotoxic, full curve] and active: 7.7 µM	
Brc1ccccc1-c1ccccc1	inconclusive: 64.9 µM [rising, single point]	
Clc1ccc(C(c2ccccc2Cl)C(Cl)Cl)cc1 (stereo not given)	inconclusive: 68.6 µM [cytotoxic, partial curve, poor fit]	
O=C(O)c1ccc([N+](=O)[O-])cc1	inconclusive: 1.22 µM [rising, full curve, poor fit]	
COc1cc(-c2nc(NC(=O)c3cc4cc(C)cc(C)c4n3CC(=O)O)sc2CCC2CCCCC2)c(OC)cc1Cl	active: 35.3 µM	
O=C(c1ccc(OCCN2CCCCC2)cc1)c1c(-c2ccc(O)cc2)sc2cc(O)ccc12	active: 3.35 µM and active: 27.3 µM and active: 5.45 µM	
CCCCCCCCNC(C)C(O)c1ccc(SC(C)C)cc1 (stereo not given)	active: 1.88 µM	
SCCCCCCCCS	active: 68.6 µM	
CC(C)(C)CC(C)(C)c1ccccc1O	inconclusive: 68.9 µM [cytotoxic, single point]	
OCCOCCOCCOCCO	inconclusive: 0.394 µM [rising, full curve, poor fit]	
c1ccc2n[nH]nc2c1	inconclusive: 68.6 µM [cytotoxic, single point]	
CC(=O)Nc1ccc(C(=O)CCl)cc1	active: 1.72 µM	
Cc1cc(O)c(C(C)(C)C)cc1C(C)(C)C	active: 10.9 µM	
C=C(c1ccc(C(=O)O)cc1)c1cc2c(cc1C)C(C)(C)CCC2(C)C	inconclusive: 77 µM [cytotoxic, single point]	
O=Nc1ccc(Nc2ccccc2)cc1	active: 3.88 µM and active: 3.06 µM	
Cc1ccc(C(C)(C)C)c(O)c1	inconclusive: 18.7 µM [rising, partial curve, poor fit]	
O=C(c1ccc(O)cc1)c1ccc(O)cc1O	inconclusive: 77.7 µM [cytotoxic, single point]	
CC1=CC(=O)c2ccccc2C1=O	active: 21.1 µM and active: 13.7 µM	
c1ccc(OCCOc2ccccc2)cc1	inconclusive: 9.68 µM [rising, partial curve]	

Reference: PubChem BioAssay (Tox21)
